Assays:
[1] = molecular target: T1, human IL13 (human, UniProt P35225); assay: SPR, ExpiCHO expressed
[2] = molecular target: T1, human IL13; assay: SPR, HEK293-FS expressed
[3] = molecular target: T1, human IL13; assay: SPR, HEK293-FS expressed; remark: listed apart in the source
[4] = molecular target: T1, human IL13; assay: SPR, ExpiCHO expressed; remark: listed apart in the source

T1 sequence (P35225 35-146): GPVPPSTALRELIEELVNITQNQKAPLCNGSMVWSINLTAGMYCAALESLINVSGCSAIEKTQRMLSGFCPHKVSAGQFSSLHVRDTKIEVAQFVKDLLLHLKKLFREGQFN

Binder	Kd [2] [nM]	other results
sLC-Tandem-(anti-IL4xanti-IL13)-PCL1-huIgG1, IL13 arm (antibody) chain 1: QVQLQQSGPELVKPGASVKISCKASGYSFTSYWIHWIKQRPGQGLEWIGMIDPSDGETRLNQRFQGRATLTVDESTSTAYMQLRSPTSEDSAVYYCTRLKEYGNYDSFYFDVWGAGTLVTVSSASTKGPSVFPLAPSSKSTSGGTAALGCLVKDYFPEPVTVSWNSGALTSGVHTFPAVLQSSGLYSLSSVVTVPSSSLGTQTYICNVNHKPSNTKVDKKVEPKSCDKTHTGGGGSGGGGSGGGGSEVQLKESGPGLVAPGGSLSITCTVSGFSLTDSSINWVRQPPGKGLEWLGMIWGDGRIDYADALKSRLSISKDSSKSQVFLEMTSLRTDDTATYYCARDGYFPYAMDFWGQGTSVTVSS[omitted - human IgG1 constant region] chain 2: DIVLTQSPASLAVSLGQRATISCRASESVDSYGQSYMHWYQQKAGQPPKLLIYLASNLESGVPARFSGSGSRTDFTLTIDPVQAEDAATYYCQQNAEDSRTFGGGTKLEIKRTVAAPSVFIFPPSDEQLKSGTASVVCLLNNFYPREAKVQWKVDNALQSGNSQESVTEQDSKDSTYSLSSTLTLSKADYEKHKVYACEVTHQGLSSPVTKSFNRGEC		binding result [3]: no binding
Tandem-(anti-IL4xanti-IL13)-huIgG1, IL13 arm (antibody) chain 1: QVQLQQSGPELVKPGASVKISCKASGYSFTSYWIHWIKQRPGQGLEWIGMIDPSDGETRLNQRFQGRATLTVDESTSTAYMQLRSPTSEDSAVYYCTRLKEYGNYDSFYFDVWGAGTLVTVSSASTKGPSVFPLAPSSKSTSGGTAALGCLVKDYFPEPVTVSWNSGALTSGVHTFPAVLQSSGLYSLSSVVTVPSSSLGTQTYICNVNHKPSNTKVDKKVEPKSCDKTHTGGGGSGGGGSGGGGSEVQLKESGPGLVAPGGSLSITCTVSGFSLTDSSINWVRQPPGKGLEWLGMIWGDGRIDYADALKSRLSISKDSSKSQVFLEMTSLRTDDTATYYCARDGYFPYAMDFWGQGTSVTVSS[omitted - human IgG1 constant region] chain 2: DIVLTQSPASLAVSLGQRATISCRASESVDSYGQSYMHWYQQKAGQPPKLLIYLASNLESGVPARFSGSGSRTDFTLTIDPVQAEDAATYYCQQNAEDSRTFGGGTKLEIKRTVAAPSVFIFPPSDEQLKSGTASVVCLLNNFYPREAKVQWKVDNALQSGNSQESVTEQDSKDSTYSLSSTLTLSKADYEKHKVYACEVTHQGLSSPVTKSFNRGEC	0.114	
sLC-Tandem-(anti-IL4xanti-IL13)-ΔPCL1-huIgG1, IL13 arm (antibody) chain 1: QVQLQQSGPELVKPGASVKISCKASGYSFTSYWIHWIKQRPGQGLEWIGMIDPSDGETRLNQRFQGRATLTVDESTSTAYMQLRSPTSEDSAVYYCTRLKEYGNYDSFYFDVWGAGTLVTVSSASTKGPSVFPLAPSSKSTSGGTAALGCLVKDYFPEPVTVSWNSGALTSGVHTFPAVLQSSGLYSLSSVVTVPSSSLGTQTYICNVNHKPSNTKVDKKVEPKSCDKTHTGGGGSGGGGSGGGGSEVQLKESGPGLVAPGGSLSITCTVSGFSLTDSSINWVRQPPGKGLEWLGMIWGDGRIDYADALKSRLSISKDSSKSQVFLEMTSLRTDDTATYYCARDGYFPYAMDFWGQGTSVTVSS[omitted - human IgG1 constant region] chain 2: DIVLTQSPASLAVSLGQRATISCRASESVDSYGQSYMHWYQQKAGQPPKLLIYLASNLESGVPARFSGSGSRTDFTLTIDPVQAEDAATYYCQQNAEDSRTFGGGTKLEIKRTVAAPSVFIFPPSDEQLKSGTASVVCLLNNFYPREAKVQWKVDNALQSGNSQESVTEQDSKDSTYSLSSTLTLSKADYEKHKVYACEVTHQGLSSPVTKSFNRGEC		binding result [4]: no binding

Second part, led by results:

Kd [2] [nM]	Binder	other results
0.181	sLC-Tandem-(anti-IL4xanti-IL13)-PCL2-huIgG1, IL13 arm (antibody) chain 1: QVQLQQSGPELVKPGASVKISCKASGYSFTSYWIHWIKQRPGQGLEWIGMIDPSDGETRLNQRFQGRATLTVDESTSTAYMQLRSPTSEDSAVYYCTRLKEYGNYDSFYFDVWGAGTLVTVSSASTKGPSVFPLAPSSKSTSGGTAALGCLVKDYFPEPVTVSWNSGALTSGVHTFPAVLQSSGLYSLSSVVTVPSSSLGTQTYICNVNHKPSNTKVDKKVEPKSCDKTHTGGGGSGGGGSGGGGSEVQLKESGPGLVAPGGSLSITCTVSGFSLTDSSINWVRQPPGKGLEWLGMIWGDGRIDYADALKSRLSISKDSSKSQVFLEMTSLRTDDTATYYCARDGYFPYAMDFWGQGTSVTVSS[omitted - human IgG1 constant region] chain 2: DIVLTQSPASLAVSLGQRATISCRASESVDSYGQSYMHWYQQKAGQPPKLLIYLASNLESGVPARFSGSGSRTDFTLTIDPVQAEDAATYYCQQNAEDSRTFGGGTKLEIKRTVAAPSVFIFPPSDEQLKSGTASVVCLLNNFYPREAKVQWKVDNALQSGNSQESVTEQDSKDSTYSLSSTLTLSKADYEKHKVYACEVTHQGLSSPVTKSFNRGEC	Kd [1]: 0.00633 nM
0.149	sLC-Tandem-(anti-IL4xanti-IL13)-His8-PCL1-huIgG1 with Furin-KDEL, IL13 arm (antibody) chain 1: QVQLQQSGPELVKPGASVKISCKASGYSFTSYWIHWIKQRPGQGLEWIGMIDPSDGETRLNQRFQGRATLTVDESTSTAYMQLRSPTSEDSAVYYCTRLKEYGNYDSFYFDVWGAGTLVTVSSASTKGPSVFPLAPSSKSTSGGTAALGCLVKDYFPEPVTVSWNSGALTSGVHTFPAVLQSSGLYSLSSVVTVPSSSLGTQTYICNVNHKPSNTKVDKKVEPKSCDKTHTGGGGSGGGGSGGGGSEVQLKESGPGLVAPGGSLSITCTVSGFSLTDSSINWVRQPPGKGLEWLGMIWGDGRIDYADALKSRLSISKDSSKSQVFLEMTSLRTDDTATYYCARDGYFPYAMDFWGQGTSVTVSS[omitted - human IgG1 constant region] chain 2: DIVLTQSPASLAVSLGQRATISCRASESVDSYGQSYMHWYQQKAGQPPKLLIYLASNLESGVPARFSGSGSRTDFTLTIDPVQAEDAATYYCQQNAEDSRTFGGGTKLEIKRTVAAPSVFIFPPSDEQLKSGTASVVCLLNNFYPREAKVQWKVDNALQSGNSQESVTEQDSKDSTYSLSSTLTLSKADYEKHKVYACEVTHQGLSSPVTKSFNRGEC	
0.087	sLC-Tandem-(anti-IL4xanti-IL13)-His8-PCL1-huIgG1 with Furin, IL13 arm (antibody) chain 1: QVQLQQSGPELVKPGASVKISCKASGYSFTSYWIHWIKQRPGQGLEWIGMIDPSDGETRLNQRFQGRATLTVDESTSTAYMQLRSPTSEDSAVYYCTRLKEYGNYDSFYFDVWGAGTLVTVSSASTKGPSVFPLAPSSKSTSGGTAALGCLVKDYFPEPVTVSWNSGALTSGVHTFPAVLQSSGLYSLSSVVTVPSSSLGTQTYICNVNHKPSNTKVDKKVEPKSCDKTHTGGGGSGGGGSGGGGSEVQLKESGPGLVAPGGSLSITCTVSGFSLTDSSINWVRQPPGKGLEWLGMIWGDGRIDYADALKSRLSISKDSSKSQVFLEMTSLRTDDTATYYCARDGYFPYAMDFWGQGTSVTVSS[omitted - human IgG1 constant region] chain 2: DIVLTQSPASLAVSLGQRATISCRASESVDSYGQSYMHWYQQKAGQPPKLLIYLASNLESGVPARFSGSGSRTDFTLTIDPVQAEDAATYYCQQNAEDSRTFGGGTKLEIKRTVAAPSVFIFPPSDEQLKSGTASVVCLLNNFYPREAKVQWKVDNALQSGNSQESVTEQDSKDSTYSLSSTLTLSKADYEKHKVYACEVTHQGLSSPVTKSFNRGEC	
